The values that follow come from patent US20250215093A1 (ZYTOX THERAPEUTICS, published 2025).

For the assay, the target named is T1, Human serum albumin (human, UniProt P02768).
T1 construct: also called HSA
The assay can be described thus: SPR, ZB05 injected over immobilised HSA. A general note: In SPR one partner is held on a chip, and binding of the other changes the refractive index at the surface.

B1: ZB05 anti-idiotypic affibody masking domain (designed binder)
chain: VDAKYAKEIRSATEIWWLPNLTADQKWAFIYKLVDDPSQSSELLSEAKKLNDSQAPK
notes: Soluble monomer with C-terminal His-tag (7.6 kDa) in SPR; also called ZB05 masking candidate; not shown: C-terminal His-tag of the soluble monomer
Take B1: the binding result is given as “no binding”.
